From patent US11639368B2, “Method for preventing and treating hyperpermeability” (Apeptico Forschung UND E[…], priority 2009, dated 2023)

Test system: myosin light chain
Test: Phosphorylation of the myosin light chain (protein blot, densitometry)
Type: cell-based
Conditions: 125 ng/ml of pneumolysin; 50 μg/ml of peptide; human endothelial lung cells
Excerpt: Human endothelial cells of the lungs, isolated from capillaries of the lungs, were acquired from the company Lonza.
The microbial toxins listeriolysin (LLO) and pneumolysin (PLY) were acquired from the University of Giessen.
Human endothelial cells of the lungs, isolated from capillaries of the lungs, were cultivated in a manner common in the laboratory.
Determination of Phosphorylation of the Myosin Light Chain
For the determination of phosphorylation of the myosin light chain and the influence of the peptide SEQ ID No. 1 on the phosphorylation, the previously cultivated human endothelial cells of the lungs were washed with phosphate buffer pH 7.4, which contained 1 mM orthovanadate. The cell contents was lysed by incubation of the cells with a solution of 20 mM tris buffer (pH 7.4), 150 mM mol/1 of NaCl, 1 mM EDTA, 1 mM EGTA, 1% Triton X-100, 2.5 mM sodiumpyrophosphate, 1 mM betaglycerophosphate, 1 mM sodiumvanadate, 1 μg/ml of leupeptine, 1 mM phenylmethylsulfonylfluoride. In addition, the cells were digested with ultrasound. […]
In order to make either the myosin light chain or the phosphorylated myosin light chain visible, the antibodies were made visible on diagnostic film using chemiluminescence in a manner common in the laboratory. The signal strength was determined with densitometry, and the ratio of myosin light chain to phosphorylated myosin light chain was determined.

Question: Which “increase in the content of phosphorylated myosin light chain by pneumolysin” value does the source give for “CGQREAPAGAAAKPWYC [peptide SEQ ID No. 3, reference compound]” here?
Answer: no influence
